# The list shows a part of the results.
# B1: SSR1 (Sclerotium rolfsii), A0A0M3KL30 (protein)
# chain: TYKITVRVYQTNPDAFFHPVEKTVWKYANGGTWTITDDQHVLTMGGSGTSGTLRFHADNGESFTATFGVHNYKRWCDIVTNLAADETGMVINQQYYSQKNREEARERQLSNYQVKNAKGRNFQIVYTEAEGNDLHANLIIG
# What was measured:
# Assay in all cases: glycan array binding signal (z-score within array); higher = stronger binding
# Conditions in all cases: glycan notation: IUPAC condensed, linker removed
# [1] = molecular target: Gal(b1-4)GlcNAc(b1-3)Gal(b1-4)GlcNAc(b1-2)Man(a1-3)[Gal(b1-4)GlcNAc(b1-3)Gal(b1-4)GlcNAc(b1-2)Man(a1-6)]Man(b1-4)GlcNAc(b1-4)[Fuc(a1-6)]GlcNAc
# In short: (§1)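 Negative Z-scores can be read as non-binding. The Z-score is calculated within each array and then averaged across arrays of one protein sequence at different concentrations or buffers and across linkers. Arrays, 3228 in all, were curated from the Consortium for Functional Glycomics database and kept only where the protein sequence was available.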
# [2] = molecular target: Gal(b1-4)GlcNAc(b1-3)Gal(b1-4)GlcNAc(b1-2)[Gal(b1-4)GlcNAc(b1-3)Gal(b1-4)GlcNAc(b1-6)]Man(a1-6)[Gal(b1-4)GlcNAc(b1-3)Gal(b1-4)GlcNAc(b1-2)Man(a1-3)]Man(b1-4)GlcNAc(b1-4)GlcNAc
# In short: as §1
# [3] = molecular target: Gal(b1-4)GlcNAc(b1-3)Gal(b1-4)GlcNAc(b1-2)[Gal(b1-4)GlcNAc(b1-3)Gal(b1-4)GlcNAc(b1-6)]Man(a1-6)[Gal(b1-4)GlcNAc(b1-3)Gal(b1-4)GlcNAc(b1-2)Man(a1-3)]Man(b1-4)GlcNAc(b1-4)[Fuc(a1-6)]GlcNAc
# In short: as §1
# [4] = molecular target: Gal(b1-4)GlcNAc(b1-3)Gal(b1-4)GlcNAc(b1-3)Gal(b1-4)GlcNAc
# In short: as §1
# [5] = molecular target: Gal(b1-4)GlcNAc(b1-3)Gal(b1-4)GlcNAc(b1-3)Gal(b1-4)GlcNAc(b1-2)Man(a1-3)[Gal(b1-4)GlcNAc(b1-3)Gal(b1-4)GlcNAc(b1-3)Gal(b1-4)GlcNAc(b1-2)Man(a1-6)]Man(b1-4)GlcNAc(b1-4)GlcNAc
# In short: as §1
# [6] = molecular target: Gal(b1-4)GlcNAc(b1-3)Gal(b1-4)GlcNAc(b1-3)Gal(b1-4)GlcNAc(b1-2)Man(a1-3)[Gal(b1-4)GlcNAc(b1-3)Gal(b1-4)GlcNAc(b1-3)Gal(b1-4)GlcNAc(b1-2)Man(a1-6)]Man(b1-4)GlcNAc(b1-4)[Fuc(a1-6)]GlcNAc
# In short: as §1
# [7] = molecular target: Gal(b1-4)GlcNAc(b1-3)Gal(b1-4)GlcNAc(b1-3)Gal(b1-4)GlcNAc(b1-2)[Gal(b1-4)GlcNAc(b1-3)Gal(b1-4)GlcNAc(b1-3)Gal(b1-4)GlcNAc(b1-6)]Man(a1-6)[Gal(b1-4)GlcNAc(b1-3)Gal(b1-4)GlcNAc(b1-3)Gal(b1-4)GlcNAc(b1-2)Man(a1-3)]Man(b1-4)GlcNAc(b1-4)[Fuc(a1-6)]GlcNAc
# In short: as §1
# [8] = molecular target: Gal(b1-4)GlcNAc(b1-3)Gal(b1-4)GlcNAc(b1-3)Gal(b1-4)GlcNAc(b1-3)Gal(b1-4)GlcNAc(b1-2)Man(a1-3)[Gal(b1-4)GlcNAc(b1-3)Gal(b1-4)GlcNAc(b1-3)Gal(b1-4)GlcNAc(b1-3)Gal(b1-4)GlcNAc(b1-2)Man(a1-6)]Man(b1-4)GlcNAc(b1-4)GlcNAc
# In short: as §1
# [9] = molecular target: Gal(b1-4)GlcNAc(b1-3)Gal(b1-4)GlcNAc(b1-3)Gal(b1-4)GlcNAc(b1-3)Gal(b1-4)GlcNAc(b1-2)Man(a1-3)[Gal(b1-4)GlcNAc(b1-3)Gal(b1-4)GlcNAc(b1-3)Gal(b1-4)GlcNAc(b1-3)Gal(b1-4)GlcNAc(b1-2)Man(a1-6)]Man(b1-4)GlcNAc(b1-4)[Fuc(a1-6)]GlcNAc
# In short: as §1
# [10] = molecular target: Gal(b1-4)GlcNAc(b1-3)Gal(b1-4)GlcNAc(b1-3)Gal(b1-4)GlcNAc(b1-3)Gal(b1-4)GlcNAc(b1-2)[Gal(b1-4)GlcNAc(b1-3)Gal(b1-4)GlcNAc(b1-3)Gal(b1-4)GlcNAc(b1-3)Gal(b1-4)GlcNAc(b1-6)]Man(a1-6)[Gal(b1-4)GlcNAc(b1-3)Gal(b1-4)GlcNAc(b1-3)Gal(b1-4)GlcNAc(b1-3)Gal(b1-4)GlcNAc(b1-2)Man(a1-3)]Man(b1-4)GlcNAc(b1-4)[Fuc(a1-6)]GlcNAc
# In short: as §1
# [11] = molecular target: Gal(b1-4)GlcNAc(b1-3)Gal(b1-4)GlcNAc(b1-3)Gal(b1-4)GlcNAc(b1-3)Gal(b1-4)GlcNAc(b1-3)Gal(b1-4)GlcNAc(b1-2)Man(a1-3)[Gal(b1-4)GlcNAc(b1-3)Gal(b1-4)GlcNAc(b1-3)Gal(b1-4)GlcNAc(b1-3)Gal(b1-4)GlcNAc(b1-3)Gal(b1-4)GlcNAc(b1-2)Man(a1-6)]Man(b1-4)GlcNAc(b1-4)GlcNAc
# In short: as §1
# [12] = molecular target: Gal(b1-4)GlcNAc(b1-3)Gal(b1-4)GlcNAc(b1-3)Gal(b1-4)GlcNAc(b1-3)Gal(b1-4)GlcNAc(b1-3)Gal(b1-4)GlcNAc(b1-2)Man(a1-3)[Gal(b1-4)GlcNAc(b1-3)Gal(b1-4)GlcNAc(b1-3)Gal(b1-4)GlcNAc(b1-3)Gal(b1-4)GlcNAc(b1-3)Gal(b1-4)GlcNAc(b1-2)Man(a1-6)]Man(b1-4)GlcNAc(b1-4)[Fuc(a1-6)]GlcNAc
# In short: as §1
# [13] = molecular target: Gal(b1-4)GlcNAc(b1-3)Gal(b1-4)GlcNAc(b1-3)Gal(b1-4)GlcNAc(b1-3)Gal(b1-4)GlcNAc(b1-3)Gal(b1-4)GlcNAc(b1-2)[Gal(b1-4)GlcNAc(b1-3)Gal(b1-4)GlcNAc(b1-3)Gal(b1-4)GlcNAc(b1-3)Gal(b1-4)GlcNAc(b1-3)Gal(b1-4)GlcNAc(b1-6)]Man(a1-6)[Gal(b1-4)GlcNAc(b1-3)Gal(b1-4)GlcNAc(b1-3)Gal(b1-4)GlcNAc(b1-3)Gal(b1-4)GlcNAc(b1-3)Gal(b1-4)GlcNAc(b1-2)Man(a1-3)]Man(b1-4)GlcNAc(b1-4)[Fuc(a1-6)]GlcNAc
# In short: as §1
# [14] = molecular target: Gal(b1-4)GlcNAc(b1-3)Gal(b1-4)GlcNAc(b1-3)Gal(b1-4)GlcNAc(b1-3)Gal(b1-4)GlcNAc(b1-3)Gal(b1-4)GlcNAc(b1-3)Gal(b1-4)GlcNAc(b1-2)Man(a1-3)[Gal(b1-4)GlcNAc(b1-3)Gal(b1-4)GlcNAc(b1-3)Gal(b1-4)GlcNAc(b1-3)Gal(b1-4)GlcNAc(b1-3)Gal(b1-4)GlcNAc(b1-3)Gal(b1-4)GlcNAc(b1-2)Man(a1-6)]Man(b1-4)GlcNAc(b1-4)GlcNAc
# In short: as §1
# [15] = molecular target: Gal(b1-4)GlcNAc(b1-3)Gal(b1-4)GlcNAc(b1-3)GalNAc
# In short: as §1
# [16] = molecular target: Gal(b1-4)GlcNAc(b1-3)Gal(b1-4)GlcNAc(b1-3)[Gal(b1-4)GlcNAc(b1-3)Gal(b1-4)GlcNAc(b1-6)]GalNAc
# In short: as §1
# [17] = molecular target: Gal(b1-4)GlcNAc(b1-3)Gal(b1-4)GlcNAc(b1-6)[Gal(b1-3)]GalNAc
# In short: as §1
# [18] = molecular target: Gal(b1-4)GlcNAc(b1-3)Gal(b1-4)[Fuc(a1-3)]GlcNAc(b1-3)Gal(b1-4)[Fuc(a1-3)]GlcNAc
# In short: as §1
# [19] = molecular target: Gal(b1-4)GlcNAc(b1-3)GalNAc
# In short: as §1
# [20] = molecular target: Gal(b1-4)GlcNAc(b1-3)[Fuc(a1-3)GlcNAc(b1-6)]Gal(b1-4)Glc
# In short: as §1
# [21] = molecular target: Gal(b1-4)GlcNAc(b1-3)[Gal(b1-4)GlcNAc(b1-6)]Gal(b1-4)GlcNAc
# In short: as §1
# [22] = molecular target: Gal(b1-4)GlcNAc(b1-3)[GlcNAc(b1-6)]Gal(b1-4)GlcNAc
# In short: as §1
binder,measurement,setting,value
B1,glycan array binding signal (z-score),[1],-0.323
same,glycan array binding signal (z-score),[2],-0.184
same,glycan array binding signal (z-score),[3],-0.332
same,glycan array binding signal (z-score),[4],-0.336
same,glycan array binding signal (z-score),[5],-0.278
same,glycan array binding signal (z-score),[6],-0.301
same,glycan array binding signal (z-score),[7],-0.33
same,glycan array binding signal (z-score),[8],-0.333
same,glycan array binding signal (z-score),[9],-0.316
same,glycan array binding signal (z-score),[10],-0.314
same,glycan array binding signal (z-score),[11],-0.316
same,glycan array binding signal (z-score),[12],-0.319
same,glycan array binding signal (z-score),[13],-0.282
same,glycan array binding signal (z-score),[14],-0.314
same,glycan array binding signal (z-score),[15],0.602
same,glycan array binding signal (z-score),[16],-0.458
same,glycan array binding signal (z-score),[17],0.687
same,glycan array binding signal (z-score),[18],-0.339
same,glycan array binding signal (z-score),[19],0.038
same,glycan array binding signal (z-score),[20],-0.31
same,glycan array binding signal (z-score),[21],-0.34
same,glycan array binding signal (z-score),[22],0.955

# Source: the supplement of paper PMC8728848
